Measured values as given in the supplement of paper PMC10126150.
Values marked as one replicate rest on one cluster of the flow cell; about a third of the high ones do not repeat.

Tested on: ATP
Assay: switch fluorescence ratio, 500 uM ATP over buffer (Cy3 cluster intensity, sum of 5 cycles each) (fold (ratio)); higher = stronger signal-on switching upon ATP binding; sequences stand for … in TCGTCGGCAGCGTCAGATGTGTATAAGAGACAGTTTTTTTTTTTTTTTTTTTTTTTTT…TC
Details: aptamer strand: ATP DNA aptamer (quencher-CACCTGGGGGAGTATTGCGGAGGAAGG + anchor), 100 nM annealed; ATP concentration: 500 uM; one replicate
Procedure, shortened: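 Imaging in selection buffer was followed by imaging after 15 min with 500 uM ATP at 22 °C, for Cy3-labelled switching-strand clusters annealed to 100 nM quencher-labelled ATP aptamer on a modified Illumina MiSeq flow-cell. Five of these buffer/ATP cycles ran, separated by NaOH stripping and re-annealing. The fluorescence ratio per cluster is summed target-cycle over summed buffer-cycle Cy3 intensity, averaged per switch-domain sequence; clusters outside 100-1000 RFU were removed.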
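Also: ATP exposure 15 min at 22 °C before imaging.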

Row | Sequence | switch fluorescence ratio
1 | TTTTGTATG | 0.977
2 | GTAGTGTTAA | 1.05
3 | TCTGCGATTC | 1.85
4 | TCGTATGGTA | 0.983
5 | AGTTAGGGG | 0.979
6 | TCGCCAGGAC | 1.93
7 | TGGCCTCCCA | 1.03
8 | TTTCGCTATC | 4.4
9 | CTGCCCGGCC | 1.09
10 | CGTGCGTAA | 1.77
11 | ACAATATTTG | 0.981
12 | ATGCTCAGAC | 1
13 | CTTATCACTA | 1.01
14 | ACGAATGAAT | 1.16
15 | GTCGACGGTT | 0.983
16 | GTTCGGTGTC | 0.991
17 | CTACTCCGGA | 0.992
18 | CATGGTGGGG | 0.933
19 | TTTGAGACCC | 1.05
20 | CCGCCCGTGG | 1.22
21 | CCACTACTCA | 1.21
22 | TGCGTTGATC | 1.02
23 | TGGCGAAT | 1.03
24 | GTAAATAGGG | 0.977
25 | ATGATGCAGG | 1.02
26 | TGCCATGCCC | 0.991

Row | Sequence | switch fluorescence ratio
27 | GGCGTGTCTG | 0.973
28 | ATTACTCGTG | 0.975
29 | TCAGCAATTT | 2.46
30 | GGGTGCGCTC | 1.02
31 | CTGTCCTCGC | 1.49
32 | ACGTACGTGC | 1.49
33 | GTTTTGCAGC | 1.07
34 | AGTCTACGGC | 0.956
35 | ATAGTTTGCT | 1.01
36 | TTAAATTGCA | 0.995
37 | TTCTATGAGG | 1
38 | ATCTCATTCT | 1.03
39 | GGTAGATAGA | 0.99
40 | CGGTATTTGG | 1.01
41 | CAAGGCTTTT | 1
42 | CTGAATGCAC | 2.39
43 | GTTCGCTGTG | 0.956
44 | TAACACCCTT | 1.08
45 | GAATGTGACA | 1.03
46 | GCTGGGTTA | 0.99
47 | CAGCGGCACA | 1.17
48 | GCCAGAACGA | 1.04
49 | TGATCCGGTT | 1.01
50 | CGATTTTCTA | 1.03
51 | GTACTATTGA | 0.958
52 | CCCTTGGGTC | 1.02

Row | Sequence | switch fluorescence ratio
53 | CGAAAAGTGA | 0.997
54 | TAGAAGGTCT | 1
55 | TTGTTTTGGA | 0.984
56 | TGATCGGGAG | 1.03
57 | AATACTGACG | 1.16
58 | ATCGGGAGTT | 1
59 | AGGGATTGTC | 1.09
60 | CAGACCGTC | 1.08
61 | AAGTTAGGGC | 1.06
62 | GTAGGCCCTG | 0.986
63 | CTCCTGCACT | 3.47
64 | TCGTATAGAT | 0.948
65 | GTTACGGTTC | 1.01
66 | TCTGACAACG | 1
67 | TCCTCCTCGG | 2.33
68 | CACCGTGTGC | 1.28
69 | GTCTTAATTT | 1.04
70 | GGAAATAATA | 1.09
71 | GAATCCATA | 1.02
72 | CTCGGGTCCT | 0.989
73 | CCACCTTGTT | 0.978
74 | CTGAATTAAT | 0.954
75 | GAGAATCCAT | 1.02
76 | CTCTTCGGCG | 1.11
77 | TCTGGGGTCC | 0.948
78 | TAAACAGTCG | 1.08

Row | Sequence | switch fluorescence ratio
79 | AGTAGGACC | 0.986
80 | CGAAAACCGC | 1.06
81 | TCCGTCCGCT | 3.56
82 | GGATAAATCA | 1.02
83 | AAGGTTGGCC | 0.972
84 | AGAATCTAGC | 0.975
85 | CACTAGTCTT | 0.98
86 | CTAACGTTAG | 0.999
87 | TGTCGGCGGC | 1.05
88 | TTAGGCTGTA | 0.974
89 | CATGGGCAAA | 0.976
90 | CCCATCACGC | 1.13
91 | AAAATGTCCA | 0.963
92 | TTGAACCTTG | 1.06
93 | TAGATCAATC | 1.04
94 | ACAAATAGGC | 1.05
95 | GGCTGCTAGT | 0.983
96 | ACAATATCCA | 0.994
97 | TTTTCTTTGT | 0.942
98 | ATGAACAATG | 1.01
99 | AATGTGTATA | 0.951
100 | CTGGTTACCG | 1.07
101 | GAACTGATTT | 1
102 | AAGAGAGTAG | 0.983
103 | GGCAACCACG | 1.12
104 | GGCAGGATCT | 0.979

Row | Sequence | switch fluorescence ratio
105 | TTGGAGGTGC | 1.4
106 | TACGGTAGGT | 1
107 | CTTACGTAA | 1.86
108 | AGAAAAGAGA | 1.02
109 | ACAGAGTGCG | 1.03
110 | GCACTTTGTA | 1.02
111 | GTGGCCGGGC | 1
112 | AAGCCTGCGG | 0.976
113 | GTGGCACGGA | 0.98
114 | ACCAAATTGA | 0.993
115 | AAGTTGCATG | 0.974
116 | ACTCTGTCTA | 1.26
117 | GTGAGCAGGA | 0.999
118 | GAGCCAGGCC | 0.999
119 | CATAGTATC | 0.961
120 | ACTATTTCAT | 1.07
121 | GTGAGTACTG | 1.05
122 | CGCTAATCAT | 1.02
123 | CCTATTTGGA | 1.01
124 | TTCCAAAAT | 1.31
125 | GCATGGAGGT | 1.02
126 | TCAGTTCCCC | 0.965
127 | AGTCTTGGGT | 0.995
128 | TTCCTGCTA | 1.21
129 | CCACGAAT | 1.08
130 | AGGTCGACG | 0.964

Row | Sequence | switch fluorescence ratio
131 | TCTGGCTGAT | 1
132 | AGTTTCTGCT | 1.02
133 | TCCCGGCACG | 1.02
134 | CAGGTAACAA | 1.02
135 | TCTTAAGCCG | 1.23
136 | ATAATTGGTA | 1
137 | ATTTTCTCGT | 1.01
138 | CATGGTATCC | 0.993
139 | CCGGTTAATT | 1.05
140 | AGTCCATCGA | 1
141 | CTTCTCGGTC | 1.01
142 | TCTTCTGCTC | 1
143 | ATAGTGGGAA | 1.02
144 | GTAGTACGC | 1.04
145 | ATTCTAACG | 0.96
146 | AAACTGTCTG | 0.975
147 | TTTAATGATG | 1.11
148 | TAATTCATTA | 1
149 | ATTGAGTAGT | 1.01
150 | GACTGATTAT | 0.994
151 | ATGTACTCTC | 1.1
152 | CTCATGCGGA | 1.08
153 | TCGGGCAGTA | 1.1
154 | CCTGCCGGGT | 1.05
155 | TATATTCAAT | 1.02
156 | ATCTGGGCAT | 0.979

Row | Sequence | switch fluorescence ratio
157 | TGCGGGTGTA | 1.02
158 | TCGGTTTAGT | 0.984
159 | CGCTGTCCGT | 1.06
160 | AAACATACAA | 1.17
161 | GCAATCCTGC | 1.22
162 | TGTTCGCGGA | 1
163 | TAGCACGAGA | 1.05
164 | TATGCGCAA | 4.29
165 | ATCTGCTCAC | 1.24
166 | CAGGGTCCTT | 0.981
167 | GTCTTAACCG | 0.985
168 | TGTTTATTAA | 1.01
169 | TATGGCGATA | 0.97
170 | GGTCAGTAAT | 0.959
171 | TTCATGGGCC | 1.08
172 | CCCGAGGGCC | 0.985
173 | TCTTTAGATC | 0.986
174 | GCCAGATA | 1.01
175 | TGCTCTTTTG | 0.999
176 | CGCCTGGG | 1.01
177 | GTTGGGTCTA | 1.01
178 | GCCGCCGGGA | 1.1
179 | GAGCGGGTGG | 1.09
180 | CGTGCGAGTA | 1.01
181 | AACTGTCAGG | 0.962
182 | TGAGTATGAA | 0.983

Row | Sequence | switch fluorescence ratio
183 | TCTGGGCTAT | 1.05
184 | AGTATCCTTG | 0.985
185 | GGCGATCCGA | 0.977
186 | CAACGTGTAT | 0.999
187 | TGGCAAATGC | 1.26
188 | TCAGACCAC | 1.03
189 | GTAATGACTT | 0.988
190 | TGGTCTGAC | 1.03
191 | TAGGGTCTAT | 0.982
192 | GTGCCCACAG | 0.978
193 | TGATCTTTTA | 0.987
194 | AGAATGTGTG | 0.988
195 | TTGTCTTGGC | 1.01
196 | GTCAGCCAAC | 1.09
197 | TCTATTACGG | 0.973
198 | GTTGAAGCGT | 0.948
199 | TATTTCCCAT | 1
200 | CCCCTTGGC | 1.08
201 | CAATGAGTAC | 1.22
